Laboratory results published in the supplement of paper PMC10126150.
Sequences with one replicate were seen in a single cluster, so their values are uncertain.

System: ATP
Assay: switch fluorescence ratio, 500 uM ATP over buffer (Cy3 cluster intensity, sum of 5 cycles each) (fold (ratio)); higher = stronger signal-on switching upon ATP binding; sequences stand for … in TCGTCGGCAGCGTCAGATGTGTATAAGAGACAGTTTTTTTTTTTTTTTTTTTTTTTTT…TC
Settings: aptamer strand: ATP DNA aptamer (quencher-CACCTGGGGGAGTATTGCGGAGGAAGG + anchor), 100 nM annealed; ATP concentration: 500 uM; one replicate
Procedure, shortened: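 After annealing to 100 nM quencher-labelled ATP aptamer, Cy3-labelled switching-strand clusters on a modified Illumina MiSeq flow-cell were imaged in selection buffer. A second image followed after 15 min with 500 uM ATP at 22 °C, and five such buffer/ATP cycles were done, each separated by NaOH stripping and re-annealing. The fluorescence ratio, averaged per switch-domain sequence, is summed target-cycle over summed buffer-cycle Cy3 intensity per cluster, with clusters outside 100-1000 RFU excluded.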
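Further: ATP exposure 15 min at 22 °C before imaging.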

Sequence	switch fluorescence ratio
CTATGGGCAC	0.995
CTATGTACAT	1.03
CTATGTGGAC	1.04
CTATGTTCAT	1
CTATTATGAG	1.06
CTATTCACGG	1
CTATTCGATT	1.02
CTATTCTAGA	1
CTATTGATAT	1.02
CTATTGCAGG	1.05
CTCAAAACC	1.09
CTCAAACAG	1.04
CTCAAACGAT	1.06
CTCAACAGT	1.01
CTCAAGTAGC	1.06
CTCAATTTTG	0.975
CTCACCCGGC	1.65
CTCACCGGCG	1.03
CTCACCGGGG	1.35
CTCACGAGG	1.03
CTCACGGAA	1.81
CTCACGGGTC	1.08
CTCACTGAGA	1.03
CTCAGAAGGA	1
CTCAGACTG	1.1

Sequence	switch fluorescence ratio
CTCAGCCTGG	1.11
CTCAGCGCGT	1.05
CTCAGGCTAG	0.995
CTCAGGGCGG	0.988
CTCAGGTTTG	1.02
CTCAGTCGTC	1.04
CTCAGTGTGA	1.05
CTCATAACA	1.02
CTCATAACAC	1.09
CTCATATGTG	1.01
CTCATGATTG	0.993
CTCATGCGGC	1.32
CTCATGCTGG	0.98
CTCATTAAAT	0.975
CTCATTACGA	1.08
CTCCAACGTT	1.07
CTCCAGCTAG	2.18
CTCCAGGACG	1.2
CTCCATAATG	1.32
CTCCCACACA	1.3
CTCCGGAGGG	1.17
CTCCGTAGGC	1.01
CTCCGTCAAC	3
CTCCGTGCGT	2.21
CTCCTAGAAT	1.04

Sequence	switch fluorescence ratio
CTCCTCGGTG	1.47
CTCCTGCATT	5.24
CTCCTTTGAC	1.78
CTCGACTATC	1.15
CTCGAGACGC	1.06
CTCGAGCCAA	1.33
CTCGATCTAA	1.01
CTCGATTTTA	1.02
CTCGCACGTA	1.04
CTCGCCCGGG	3.34
CTCGCCGGCG	1
CTCGCTATGA	1.65
CTCGGATTGA	1
CTCGGGCTTT	1
CTCGGGTATA	0.986
CTCGGTACCC	1.05
CTCGGTATCT	0.996
CTCGGTGGCC	0.992
CTCGGTGTAG	1.01
CTCGGTGTTT	0.987
CTCGTACGGT	0.988
CTCGTAGTGA	1.03
CTCGTCGTAC	1.48
CTCGTCTTTG	1.01
CTCGTGGGGA	1.01

Sequence	switch fluorescence ratio
CTCGTTTCCA	1.02
CTCTACGTCA	1.32
CTCTACTGAA	1.05
CTCTAGACGG	1.03
CTCTAGCGAA	1.48
CTCTATTTGT	1.01
CTCTCAAACT	1.13
CTCTCATGGG	1.05
CTCTCCCTAA	1.28
CTCTCCGAGT	1.21
CTCTCTAAAG	0.982
CTCTCTATAG	1.28
CTCTCTCTAT	1.03
CTCTCTGTTC	1.06
CTCTGACCAG	1.01
CTCTGATGGC	1.11
CTCTGCACAC	1.31
CTCTGGATTG	1.06
CTCTTGTATG	0.989
CTCTTTGTCT	0.982
CTGAAAATTT	0.847
CTGAAAC	1.03
CTGAAAGGCG	1.05
CTGAAAGGGG	0.962
CTGAACCCGG	1.07

Sequence	switch fluorescence ratio
CTGAACTCGC	1.48
CTGAAGAGGT	0.959
CTGAAGAGTC	1.01
CTGAAGATGC	1.61
CTGAAGGAAA	1.02
CTGAATGAAC	0.992
CTGAATTCTT	1.02
CTGACAGGGG	0.987
CTGACATAGG	1.03
CTGACCCCCC	1.82
CTGACGGGAC	3.78
CTGACTCCGC	3.28
CTGAGAAGGT	1.03
CTGAGAGAG	0.967
CTGAGAGGTC	1.01
CTGAGCATG	1.39
CTGAGCGCTT	1.09
CTGAGGCGGG	1.08
CTGAGGGCGG	0.992
CTGAGTACGA	0.994
CTGAGTCAAG	1.1
CTGAGTTAG	1.01
CTGATAATGA	1.03
CTGATATAGC	1
CTGATCAAGA	0.967

Sequence	switch fluorescence ratio
CTGATCGGTG	1.04
CTGATGAAGG	1.01
CTGATTTGAC	0.995
CTGCAAAATC	3.05
CTGCACGGAT	1.03
CTGCAGTGGT	1.16
CTGCCAATTT	2.49
CTGCCACGAA	0.96
CTGCCCAAAA	1.04
CTGCCCTGT	1
CTGCCGTTCA	1.04
CTGCCTAGGG	1.04
CTGCGAAAGA	1.02
CTGCGACGTG	0.963
CTGCGCCAAG	1.22
CTGCGGATAT	1.33
CTGCGGGGTG	1.06
CTGCGTACTA	1.17
CTGCGTGGGC	1.04
CTGCTAGAGA	0.978
CTGCTTTCG	1
CTGGAAGGGA	1.02
CTGGACATG	1.14
CTGGACCACA	0.994
CTGGAGGAAG	1.02

Sequence	switch fluorescence ratio
CTGGAGTTAA	1.56
CTGGATAACC	0.972
CTGGATACCT	1.29
CTGGATCAGC	1.1
CTGGATGTAA	0.982
CTGGATTGCA	0.966
CTGGCCCTCT	1.03
CTGGCGAGAG	1.04
CTGGCGGGCG	1.07
CTGGCTCGCA	1.17
CTGGGAGGAA	0.963
CTGGGAGTTG	1
CTGGGCACAA	1.01
CTGGGCACCT	1.05
CTGGGCAGTA	1.11
CTGGGCATTT	1.01
CTGGGCGAGA	1.02
CTGGGGACTG	0.991
CTGGGGATTC	1.01
CTGGGGGACT	0.962
CTGGGGGCGT	1.02
CTGGGGGG	1.02
CTGGGGTAGA	1.06
CTGGGTAATC	1.18
CTGGGTATCA	0.964

Sequence	switch fluorescence ratio
CTGGGTTACG	0.951
CTGGTCTCTG	0.968
CTGGTCTGGG	1
CTGGTCTTGT	1.03
CTGGTGTTGG	1.04
CTGGTTAGAT	1.02
CTGGTTAGTG	0.991
CTGGTTCAGC	1.01
CTGGTTCGTG	1
CTGGTTGGCG	0.94
CTGGTTGTTC	1.06
CTGTAAGCAG	1.04
CTGTAATTCA	1.01
CTGTATAAGG	0.984
CTGTATGATA	0.985
CTGTATTGAG	1
CTGTCCGGTC	1.02
CTGTCGAAAA	1
CTGTCGCGC	1.1
CTGTCTAGTT	0.997
CTGTCTATTT	0.98
CTGTGACAGA	0.988
CTGTGCATTC	4.8
CTGTGCCAGG	1.17
CTGTGGGATC	1.08
